The campaign covered roughly 360,000 compounds. About 7,500 (2.1%) were called active. The inconclusive results got no clear call from the source; some entries with a clear call stand among them for comparison. Calls follow the shape of the dose curve; as a rule, active = well fitted cell-killing curve with a large enough effect; inconclusive = small, poorly fitted or top-dose-only effect, or effect the other way, or another doubt; inactive = no such curve, though single readings can be large or run the other way. Potencies of inconclusive entries are left out as doubtful fits.
Assay: qHTS for induction of synthetic lethality in tumor cells producing 2HG: qHTS for the HT-1080-IDH1KD cell line;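 as to activity, negative = toxicity: 0% = DMSO wells and -100% = cell-free medium wells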
Settings: HT-1080 IDH1 knockdown viability, ATP luminescence, 48 h; activity, negative = toxicity: at 46.1 µM (top of the series) unless noted
Outline: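 Knockdown cells (IDH1KD HT-1080) received compounds 2 h after plating at 750 cells/well and were kept 48 h at 37 °C in 5% FBS RPMI. A CellTiter-Glo luminescence read gave % activity for curve fitting.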
Potency is read from the fitted curve at half-maximal effect; tags tell the direction and shape of the fitted curve.

| Compound | Potency | activity, negative = toxicity |
| --- | --- | --- |
| CC(=O)Oc1ccc(-c2ccc(C(=O)Nc3cccc(S(=O)(=O)N4CCOCC4)c3)cc2)cc1 | active: 10.3 µM |  |
| O=C(NC(Nc1nc2ccc([N+](=O)[O-])cc2s1)(C(F)(F)F)C(F)(F)F)c1ccccc1Cl | active: 2.91 µM |  |
| CCc1ccc2[nH]c(O)c(N=Nc3nc(-c4ccccc4)cs3)c2c1 | inconclusive [cytotoxic, single point] |  |
| Cc1ccc(-c2nc(Nc3ccc(N4CCOCC4)cc3)c3ccccc3n2)cc1 | active: 20.6 µM |  |
| N/C(=N\OC(=O)c1ccccc1)C(C(=O)NOC(=O)c1ccccc1)C1CCCCC1 (stereo unspecified) | inconclusive [cytotoxic, single point] |  |
| Cc1ccc(C(=O)N/N=C\c2ccc(-c3ccc(Cl)cc3)o2)cn1 | inconclusive [cytotoxic, single point] |  |
| COc1ccc(OCCCCc2c(C)n[nH]c2C)cc1 |  | inactive: 0.925% |
| N=NC(=O)c1ccccc1Nc1c(O)[nH]c2ccccc12 | inconclusive [cytotoxic, single point] |  |
| CC(=O)c1sc(NC(=O)c2cccs2)nc1C | inconclusive [cytotoxic, partial curve] |  |
| CCC/C=C/c1ccc(CN2C(CC(C)C)C(=O)N(Cc3cn(CCC4OCCCO4)nn3)CCS2(=O)=O)cc1 (stereo unspecified) | inconclusive [cytotoxic, single point] |  |
| COn1c2c(c3c4no[n+]([O-])c4ccc31)CCCC2 |  | inactive: -8.85% |
| Cc1sc(NC(=O)c2ccco2)c(C(c2cccnc2)N2CCC(C)CC2)c1C (stereo unspecified) | active: 4.61 µM |  |
| COc1ccc(/C=C\C(=O)CC(O)(c2ccccc2)C(F)(F)F)cc1 (stereo unspecified) | active: 11.2 µM |  |
| Nc1ncnc2oc(-c3ccco3)c(-c3ccco3)c12 | inconclusive [cytotoxic, single point] |  |
| CC(C)OCc1ccc(C(=O)N2CCN(CC(=O)N3CCCC3)CC2)cc1 |  | inactive: 6.72% |
| O=C(CCl)N(c1ccccc1)c1ccccc1 | active: 5.17 µM |  |
| COc1cccc(CNc2nc3cc(-c4ccccc4C)sc3c(=O)n2C)c1OC | inconclusive [cytotoxic, single point] |  |
| COc1ccc2c(c1)C(=NN)c1cc(OC)ccc1-2 | inconclusive [cytotoxic, single point] |  |
| CC(=O)N1CCN(c2nc3ccc(Br)cc3s2)CC1 | inconclusive [cytotoxic, single point] |  |
| COC(=O)C1=C(C)NC(C)=C(C(=O)OCCN(C)Cc2ccccc2)C1c1cccc([N+](=O)[O-])c1 (stereo unspecified) | inconclusive [cytotoxic, single point] |  |
| N#CCC(=O)N/N=C/c1cn(Cc2ccc3ccccc3c2)c2ccccc12 | inconclusive [cytotoxic, single point] |  |
| COC(=O)c1cc(C(=O)N2CCN(c3ccccc3OC)CC2)cc([N+](=O)[O-])c1 | active: 0.326 µM |  |
| N/C(=N\N=C\c1cccc(O)c1)c1nonc1N | inconclusive [cytotoxic, partial curve] |  |

| Compound | Potency | activity, negative = toxicity |
| --- | --- | --- |
| CCCc1[nH]nc2c1C(c1ccc(O)cc1OCC)C(C#N)=C(N)O2 (stereo unspecified) |  | inactive: -15% |
| COc1ccc(CN2CN(C3CCCC3)CSC2=S)cc1 | inconclusive [cytotoxic, single point] |  |
| COc1ccc(C(=O)Nc2ccc3c(c2)OCCO3)cc1 | inconclusive [cytotoxic, single point] |  |
| CN(C)CCCNS(=O)(=O)c1ccc(NC2CCCCCC2)c([N+](=O)[O-])c1 | inconclusive [cytotoxic, single point] |  |
| CCC(C)c1ccc(NC(=O)C2CCCN(c3ncccn3)C2)cc1 (stereo unspecified) | inconclusive [cytotoxic, single point] |  |
| Cc1ccccc1-c1cc2nc(NCc3ccccc3F)n(C)c(=O)c2s1 | inconclusive [cytotoxic, partial curve] |  |
| Cc1ccc(N/N=C2\CCS(=O)(=O)c3sccc32)cc1 |  | inconclusive: -16.6% [cytotoxic] |
| C[C@H](CO)N1C[C@H](C)[C@@H](CN(C)S(=O)(=O)c2ccccc2)Oc2c(NS(=O)(=O)c3ccccc3)cccc2C1=O |  | inactive: -3.39% |
| CSc1ccc2c(c1)C(N1CCN(C)CC1)Cc1ccc(F)cc1S2 (stereo unspecified) | inconclusive [cytotoxic, single point] |  |
| Cc1cc(=O)n2[nH]c(-c3ccsc3-n3c(C)ccc3C)cc2n1 |  | inactive: 2.7% |
| C=C1CCC2C(C)(C)[C@@H](O)CC[C@@]2(C)[C@@H]1COc1ccc2ccc(=O)oc2c1 (stereo partly specified) |  | inconclusive: -28.6% [cytotoxic] |
| O=C(Nc1ccon1)c1ccc(OC2CCCC2)cc1 |  | inactive: -2.24% |
| O=C(/C=C/c1ccc(Cl)c([N+](=O)[O-])c1)Nc1cccc(NC(=O)c2ccco2)c1 | inconclusive [cytotoxic, single point] |  |
| COc1ccc(NC(=O)C2CCCN2S(=O)(=O)c2ccc3c(c2)CC(C)N3C(C)=O)cc1OC (stereo unspecified) |  | inactive: 9.97% |
| COc1ccc(Nc2nc(C)nc3c2oc2ccccc23)c(OC)c1 | active: 29.1 µM |  |
| C/C(=N/NC(=O)CNC(=O)CCc1ccccc1)c1ccc(Cl)c(Cl)c1 |  | inactive: -8.44% |
| CC(C)c1cccc(-c2csc(C(O)c3ccc(F)c(F)c3)n2)c1 (stereo unspecified) | inconclusive [cytotoxic, single point] |  |
| CN1C=CC=C/C1=C1\SC(=S)N(C2CCCCC2)C1=O |  | inactive: 2.8% |
| CC1(C(=O)NS(=O)(=O)c2ccc(Cl)cc2)CCN1C(=O)Cc1cccs1 (stereo unspecified) | inconclusive [rising, single point] |  |
| COc1ccc(N(C(=O)c2snc(C(N)=O)c2N)C(C(=O)NCc2ccccc2)c2ccc(O)cc2)cc1OC (stereo unspecified) |  | inactive: -3.4% |
| O=S1(=O)N=C(N/N=C/c2ccccn2)c2ccccc21 | inconclusive [cytotoxic, single point] |  |
| Cc1ccc(S(=O)(=O)Nc2ccc(N3CCOCC3)cc2)cc1C |  | inactive: 2.05% |
| CC(C)N(CCNCC(O)COc1ccc(C(C)(C)c2ccccc2)cc1)C(C)C (stereo unspecified) | inconclusive [cytotoxic, single point] |  |

Source: PubChem BioAssay AID686971 (National Center for Advancing Translational Sciences (NCATS), 2013)
